Experimental data reported in patent US20250276979A1, “SARS-COV2 MAIN PROTEASE INHIBITORS” (Gilead Sciences, Inc., priority 2024, published 2025).

molecular target: recombinant SARS-CoV-2 Main protease (Mpro) (Severe acute respiratory syndrome coronavirus 2, UniProt P0DTD1); test: Cov Mpro Biochemical IC50 Assay; conditions: 7.5 nM Mpro, fluorogenic peptide substrate 40 μM, 20 min pre-incubation

Structure (SMILES) | IC50
O=C1CC(n2c(=O)[nH]c3cc(-c4c(Cl)cccc4-c4ccc5c(c4)OC(F)(F)O5)sc3c2=O)CCN1 (stereo not shown) [Example 13, 6-(2-chloro-6-(2,2-difluorobenzo[d][1,3]dioxol-5-yl)phenyl)-3-(2-oxopiperidin-4-yl)thieno[3,2-d]pyrimidine-2,4(1H,3H)-dione] | 408 nM
CNC(=O)CCn1c(=O)n([C@@H]2CCCNC(=O)C2)c(=O)c2sc(-c3cc(OC)c(F)cc3Cl)cc21 [Example 42, (R)-3-(6-(2-chloro-4-fluoro-5-methoxyphenyl)-2,4-dioxo-3-(2-oxoazepan-4-yl)-3,4-dihydrothieno[3,2-d]pyrimidin-1(2H)-yl)-N-methylpropanamide] | 34.2 nM
O=C1CC(n2c(=O)[nH]c3cc(-c4ccccc4Cl)sc3c2=O)CCN1 (stereo not shown) [Example 1, 6-(2-chlorophenyl)-3-(2-oxopiperidin-4-yl)thieno[3,2-d]pyrimidine-2,4(1H,311)-dione] | 92.8 nM
COc1cc(-c2cc3[nH]c(=O)n([C@@H]4CC(=O)NC[C@H](C)C4)c(=O)c3s2)c(Cl)cc1F (single isomer, unassigned) [Example 54] | 6.38 nM
COc1ccc(Cl)c(-c2cc3[nH]c(=O)n([C@H]4CCCNC(=O)C4)c(=O)c3s2)c1 (single isomer, unassigned) [Example 24] | 55 nM
COc1cc(-c2cc3[nH]c(=O)n([C@H]4CCNC(=O)C4)c(=O)c3s2)c(Cl)cc1F [Example 16, (S)-6-(2-chloro-4-fluoro-5-methoxyphenyl)-3-(2-oxopiperidin-4-yl)thieno[3,2-d]pyrimidine-2,4(1H,3H)-dione] | 14 nM
COc1cc(-c2cc3c(s2)c(=O)n([C@@H]2CCCNC(=O)C2)c(=O)n3CCC(=O)N(C)C)c(Cl)cc1F [Example 40, (R)-3-(6-(2-chloro-4-fluoro-5-methoxyphenyl)-2,4-dioxo-3-(2-oxoazepan-4-yl)-3,4-dihydrothieno[3,2-d]pyrimidin-1(2H)-yl)-N,N-dimethylpropanamide] | 47.4 nM
Cc1cc(-c2cccc(Cl)c2-c2cc3[nH]c(=O)n(C4CCNC(=O)C4)c(=O)c3s2)cn2ncnc12 (stereo not shown) [Example 11, 6-(2-chloro-6-(8-methyl-[1,2,4]triazolo[1,5-a]pyridin-6-yl)phenyl)-3-(2-oxopiperidin-4-yl)thieno[3,2-d]pyrimidine-2,4(1H,3H)-dione] | 26 nM
COc1ccc(Cl)c(-c2cc3[nH]c(=O)n([C@H]4CCNC(=O)C4)c(=O)c3s2)c1 [Example 17, (S)-6-(2-chloro-5-methoxyphenyl)-3-(2-oxopiperidin-4-yl)thieno[3,2-d]pyrimidine-2,4(1H,3H)-dione] | 8.89 nM
COc1cc(-c2cc3c(s2)c(=O)n([C@@H]2CCCNC(=O)C2)c(=O)n3CCC#N)c(C#N)cc1F [Example 49, (R)-2-(1-(2-cyanoethyl)-2,4-dioxo-3-(2-oxoazepan-4-yl)-1,2,3,4-tetrahydrothieno[3,2-d]pyrimidin-6-yl)-5-fluoro-4-methoxybenzonitrile] | > 1000 nM
